± gives the standard deviation. This is a selection; strong and weak results do not stand in their true shares.
System: MIWI (PIWIL1) piRISC loaded with piRNA #1 (30 nt)
Assay: pre-steady-state target cleavage rate (min^-1); MIWI and MILI are mouse PIWI proteins and EfPiwi is from a freshwater sponge; tags in brackets are library labels; higher = faster piRNA-guided slicing of the target
Conditions: guide: piRNA #1 5'p-UGAGGUAGUAGGUUGUAUAGUAUCCAGAGG; auxiliary factor: 500 nM mouse GTSF1
Outline: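 Sequencing of uncleaved targets, normalised to depth and to weakly complementary targets, was the readout of this Cleave-'n-Seq assay. A transcribed, DNA-blocked target RNA library (0.1 nM) was mixed with 1 nM active affinity-purified piRISC carrying one synthetic guide, with or without 500 nM GTSF1 partner protein, in HEPES–potassium acetate buffer at 33 °C for 0–8 or 0–960 min. Three trials were pooled, k3 was capped at 0.0001 min^-1, and a burst-and-steady-state fit gave the pre-steady-state cleavage rate.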

Row | Sequence | pre-steady-state target cleavage rate
1 | GGACUGGAUACUAUACUUGCUACUACCUCA | 0.0254 ± 0.0063
2 | GGACUCGAUACUUUACAACCUACUACCUCA | 1.57 ± 0.14
3 | GGAGACCUUUCUUUACAACCUACUACCUCA | 0.161 ± 0.026
4 | GGAGAGGAUACAUAACAACCUACUACCUCA | 0.7 ± 0.065
5 | GGAGACGAUACUUAACAACCUACUACCUCA | 0.793 ± 0.068
6 | GGAGACCUAUGUAUACAACCUACUAACUCA | 0.268 ± 0.033
7 | GGUCUGGAUACAAUUCAACCUACUACCUCA | 1.44 ± 0.11
8 | GGAGAGGAUACUAUACAACCUACUUGCUCA | 0.0895 ± 0.025
9 | GGAGUGGAUACUAUACAACCUACUUGCUCA | 0.00341 ± 0.0031
10 | GGAGACCUAUCUAUCACAACCUACUACCUCA | 0.0914 ± 0.015
11 | GGAGACCUAUGUAUACAUCCUACUACCACA | 0.0109 ± 0.0035
12 | GGAGACCUUACUAUACAAGCUACUACCUGA | 0.5 ± 0.029
13 | GGAGACGAUUCUAUACAACGUACUACCUCA | 0.555 ± 0.031
14 | CCUCUGGAUACAAUACAACCUACUACCUGA | 0.657 ± 0.085
15 | GGAGACCUAUGUAUACCAACCUACUACCUCA | 0.0026 ± 0.0026
16 | GCUCUGCAUACUAUACUACCUACUACCUCA | 1.56 ± 0.1
17 | GGACUGGUUACUAUACAUCCUACUACCUCA | 1.28 ± 0.13
18 | GGAGACCUAACUAUACAACCUACAACCUGA | 0.2 ± 0.07
19 | GGAGAGGUUAGUAUACAACCUACUACCUCA | 0.0713 ± 0.013
20 | GGAGACCAUACUACACAACCUACUACCUCA | 1.73 ± 0.11
21 | GGAGUGGAUACUAUACAAGCUACUACCUGA | 0.267 ± 0.031
22 | GGAGUGGAUAGUAUACAAGCUACUACCUCA | 0.252 ± 0.026
23 | GGAGACCAUACUAUACAACCUACUAGCCUCA | 0.898 ± 0.071
24 | GGAGAGGAUUCUAUACAAGCUACUACCUCA | 0.788 ± 0.033
